{"source": "patent US9486506B2", "about": "(Novo Nordisk A/S, priority 2011, dated 2016)", "note": "For at least one compound, name, drawing or mass did not settle the structure. Numbered stars: 1 amine (or outer) side, 2 acyl side, 3 side chain; on linkers, the order of the positions; unused ones are H or OH. Side chains are listed from the residue outwards. Peptide text beside a SMILES is read from it. * marks the point of attachment. C18 diacid = O=C(O)CCCCCCCCCCCCCCCCC(=O)*; C16 diacid = O=C(O)CCCCCCCCCCCCCCC(=O)*; γGlu = O=C(O)[C@H](CCC(=O)[*:2])N[*:1]; AEEA = NCCOCCOCC(=O)O"}
{"experiment": "Assay (II) ThT fibrillation assay for physical stability", "type": "physicochemical", "settings": "pH 7.5", "units": {"ThT assay [Lagtime]": "h"}}
{"smiles": "CC(C)C[C@H](NC(=O)[C@H](Cc1c[nH]c2ccccc12)NC(=O)[C@H](CCCCNC(=O)CC[C@H](NC(=O)CC[C@H](NC(=O)CC[C@H](NC(=O)CC[C@H](NC(=O)CCCCCCCCCCCCCCCCC(=O)O)C(=O)O)C(=O)O)C(=O)O)C(=O)O)NC(=O)[C@@H](NC(=O)[C@H](Cc1ccccc1)NC(=O)[C@H](CC(=O)O)NC(=O)[C@H](CCC(N)=O)NC(=O)[C@H](C)NC(=O)[C@H](CCCNC(=N)N)NC(=O)[C@H](CCCNC(=N)N)NC(=O)[C@@H](NC(=O)[C@H](CC(=O)O)NC(=O)[C@H](CC(C)C)NC(=O)[C@H](Cc1ccc(O)cc1)NC(=O)[C@H](CCCCN)NC(=O)[C@H](CO)NC(=O)[C@H](Cc1ccc(O)cc1)NC(=O)[C@H](CC(=O)O)NC(=O)[C@H](CO)NC(=O)[C@@H](NC(=O)[C@H](Cc1ccccc1)NC(=O)[C@@H](NC(=O)CNC(=O)[C@H](CCC(N)=O)NC(=O)[C@H](CO)NC(=O)[C@@H](N)Cc1c[nH]cn1)[C@@H](C)O)[C@@H](C)O)C(C)C)C(C)C)C(=O)N[C@@H](CC(C)C)C(=O)N[C@@H](CO)C(=O)N[C@H](C(N)=O)[C@@H](C)O", "note": "[Example 76, N^ε24-[(4S)-4-carboxy-4-[[(4S)-4-carboxy-4-[[(4S)-4-carboxy-4-[[(4S)-4-carboxy-4-(17-carboxyheptadecanoylamino)butanoyl]amino]butanoyl]amino]butanoyl]amino]butanoyl]-[Val16,Lys24,Leu27,Ser28]-Glucagon amide]", "ThT assay [Lagtime]": 45}
{"smiles": "CC(C)C[C@H](NC(=O)[C@H](Cc1c[nH]c2ccccc12)NC(=O)[C@H](CCCCNC(=O)CC[C@H](NC(=O)CC[C@H](NC(=O)COCCOCCNC(=O)COCCOCCNC(=O)CC[C@H](NC(=O)CCCCCCCCCCCCCCC(=O)O)C(=O)O)C(=O)O)C(=O)O)NC(=O)[C@@H](NC(=O)[C@H](Cc1ccccc1)NC(=O)[C@H](CC(=O)O)NC(=O)[C@H](CCC(N)=O)NC(=O)[C@H](C)NC(=O)[C@H](CCCNC(=N)N)NC(=O)[C@H](CCCNC(=N)N)NC(=O)[C@@H](NC(=O)[C@H](CC(=O)O)NC(=O)[C@H](CC(C)C)NC(=O)[C@H](Cc1ccc(O)cc1)NC(=O)[C@H](CCCCN)NC(=O)[C@H](CO)NC(=O)[C@H](Cc1ccc(O)cc1)NC(=O)[C@H](CC(=O)O)NC(=O)[C@H](CO)NC(=O)[C@@H](NC(=O)[C@H](Cc1ccccc1)NC(=O)[C@@H](NC(=O)CNC(=O)[C@H](CCC(N)=O)NC(=O)[C@H](CO)NC(=O)[C@@H](N)Cc1c[nH]cn1)[C@@H](C)O)[C@@H](C)O)C(C)C)C(C)C)C(=O)N[C@@H](CC(C)C)C(=O)N[C@@H](CO)C(=O)N[C@H](C(=O)O)[C@@H](C)O", "note": "[Example 95, N^ε24-[(4S)-4-carboxy-4-[[(4S)-4-carboxy-4-[[2-[2-[2-[[2-[2-[2-[[(4S)-4-carboxy-4-(15-carboxypentadecanoylamino)butanoyl]amino]ethoxy]ethoxy]acetyl]amino]ethoxy]ethoxy]acetyl]amino]butanoyl]amino]butanoyl]-[Val16,Lys24,Leu27,Ser28]-Glucagon] (H-HSQGTFTSDYSKYLDVRRAQDFVK([γGlu-γGlu-AEEA-AEEA-γGlu-C16 diacid])WLLST-OH; N-terminus and C-terminus assumed)", "ThT assay [Lagtime]": 45}
{"smiles": "CC(C)C[C@H](NC(=O)[C@H](Cc1c[nH]c2ccccc12)NC(=O)[C@H](CCCCNC(=O)CC[C@H](NC(=O)CC[C@H](NC(=O)COCCOCCNC(=O)COCCOCCNC(=O)CC[C@H](NC(=O)CCCCCCCCCCCCCCCCC(=O)O)C(=O)O)C(=O)O)C(=O)O)NC(=O)[C@@H](NC(=O)[C@H](Cc1ccccc1)NC(=O)[C@H](CCC(=O)O)NC(=O)[C@H](CCC(N)=O)NC(=O)[C@H](C)NC(=O)[C@H](CCCNC(=N)N)NC(=O)[C@H](CCCNC(=N)N)NC(=O)[C@@H](NC(=O)[C@H](CC(=O)O)NC(=O)[C@H](CC(C)C)NC(=O)[C@H](Cc1ccc(O)cc1)NC(=O)[C@H](CCCCN)NC(=O)[C@H](CO)NC(=O)[C@H](Cc1ccc(O)cc1)NC(=O)[C@H](CC(=O)O)NC(=O)[C@H](CO)NC(=O)[C@@H](NC(=O)[C@H](Cc1ccccc1)NC(=O)[C@@H](NC(=O)CNC(=O)[C@H](CCC(N)=O)NC(=O)[C@H](CO)NC(=O)[C@@H](N)Cc1c[nH]cn1)[C@@H](C)O)[C@@H](C)O)[C@@H](C)O)C(C)C)C(=O)N[C@@H](CC(C)C)C(=O)N[C@@H](CO)C(=O)N[C@H](C(=O)O)[C@@H](C)O", "note": "[Example 31, N^ε24-[(4S)-4-carboxy-4-[[(4S)-4-carboxy-4-[[2-[2-[2-[[2-[2-[2-[[(4S)-4-carboxy-4-(17-carboxyheptadecanoylamino)butanoyl]amino]ethoxy]ethoxy]acetyl]amino]ethoxy]ethoxy]acetyl]amino]butanoyl]amino]butanoyl]-[Thr16,Glu21,Lys24,Leu27,Ser28]-Glucagon] (H-HSQGTFTSDYSKYLDTRRAQEFVK([γGlu-γGlu-AEEA-AEEA-γGlu-C18 diacid])WLLST-OH)", "ThT assay [Lagtime]": 45}
{"smiles": "CC(C)C[C@H](NC(=O)[C@H](CC(C)C)NC(=O)[C@H](Cc1c[nH]c2ccccc12)NC(=O)[C@H](CCCCNC(=O)CC[C@H](NC(=O)CC[C@H](NC(=O)COCCOCCNC(=O)COCCOCCNC(=O)CC[C@H](NC(=O)CCCCCCCCCCCCCCC(=O)O)C(=O)O)C(=O)O)C(=O)O)NC(=O)[C@@H](NC(=O)[C@H](Cc1ccccc1)NC(=O)[C@H](CC(=O)O)NC(=O)[C@H](CCC(N)=O)NC(=O)[C@H](C)NC(=O)[C@H](CCCNC(=N)N)NC(=O)[C@H](CCCNC(=N)N)NC(=O)[C@H](CC(C)C)NC(=O)[C@H](CC(=O)O)NC(=O)[C@H](CC(C)C)NC(=O)[C@H](Cc1ccc(O)cc1)NC(=O)[C@H](CCCNC(=N)N)NC(=O)[C@H](CO)NC(=O)[C@H](Cc1ccc(O)cc1)NC(=O)[C@H](CC(=O)O)NC(=O)[C@H](CO)NC(=O)[C@@H](NC(=O)[C@H](Cc1ccccc1)NC(=O)[C@@H](NC(=O)CNC(=O)[C@H](CCC(N)=O)NC(=O)[C@H](CO)NC(=O)[C@@H](N)Cc1c[nH]cn1)[C@@H](C)O)[C@@H](C)O)C(C)C)C(=O)NCC(=O)N[C@H](C(=O)O)[C@@H](C)O", "note": "[Example 90, N^ε24-[(4S)-4-carboxy-4-[[(4S)-4-carboxy-4-[[2-[2-[2-[[2-[2-[2-[[(4S)-4-carboxy-4-(15-carboxypentadecanoylamino)butanoyl]amino]ethoxy]ethoxy]acetyl]amino]ethoxy]ethoxy]acetyl]amino]butanoyl]amino]butanoyl]-[Arg12,Leu16,Lys24,Leu27,Gly28]-Glucagon] (H-HSQGTFTSDYSRYLDLRRAQDFVK([γGlu-γGlu-AEEA-AEEA-γGlu-C16 diacid])WLLGT-OH)", "ThT assay [Lagtime]": 45}
{"smiles": "CC(C)C[C@H](NC(=O)[C@H](Cc1c[nH]c2ccccc12)NC(=O)[C@H](CCCCNC(=O)CC[C@H](NC(=O)CC[C@H](NC(=O)COCCOCCNC(=O)COCCOCCNC(=O)CC[C@H](NC(=O)CCCCCCCCCCCCCCCCC(=O)O)C(=O)O)C(=O)O)C(=O)O)NC(=O)[C@@H](NC(=O)[C@H](Cc1ccccc1)NC(=O)[C@H](CC(=O)O)NC(=O)[C@H](CCC(N)=O)NC(=O)[C@H](C)NC(=O)[C@H](CCCNC(=N)N)NC(=O)[C@H](CCCNC(=N)N)NC(=O)[C@@H](NC(=O)[C@H](CC(=O)O)NC(=O)[C@H](CC(C)C)NC(=O)[C@H](Cc1ccc(O)cc1)NC(=O)[C@H](CCCCN)NC(=O)[C@H](CO)NC(=O)[C@H](Cc1ccc(O)cc1)NC(=O)[C@H](CC(=O)O)NC(=O)[C@H](CO)NC(=O)[C@@H](NC(=O)[C@H](Cc1ccccc1)NC(=O)[C@@H](NC(=O)CNC(=O)[C@H](CCC(N)=O)NC(=O)[C@H](CO)NC(=O)[C@@H](N)Cc1c[nH]cn1)[C@@H](C)O)[C@@H](C)O)[C@@H](C)O)C(C)C)C(=O)N[C@@H](CC(C)C)C(=O)N[C@@H](CO)C(=O)N[C@H](C(N)=O)[C@@H](C)O", "note": "[Example 39, N^ε24-[(4S)-4-carboxy-4-[[(4S)-4-carboxy-4-[[2-[2-[2-[[2-[2-[2-[[(4S)-4-carboxy-4-(17-carboxyheptadecanoylamino)butanoyl]amino]ethoxy]ethoxy]acetyl]amino]ethoxy]ethoxy]acetyl]amino]butanoyl]amino]butanoyl]-[Thr16,Lys24,Leu27,Ser28]-Glucagon amide]", "ThT assay [Lagtime]": 45}
{"smiles": "CC(C)C[C@H](NC(=O)[C@H](Cc1ccc(O)cc1)NC(=O)[C@H](CCCCN)NC(=O)[C@H](CO)NC(=O)[C@H](Cc1ccc(O)cc1)NC(=O)[C@H](CC(=O)O)NC(=O)[C@H](CO)NC(=O)[C@@H](NC(=O)[C@H](Cc1ccccc1)NC(=O)[C@@H](NC(=O)CNC(=O)[C@H](CCC(N)=O)NC(=O)[C@H](CO)NC(=O)[C@@H](N)Cc1c[nH]cn1)[C@@H](C)O)[C@@H](C)O)C(=O)N[C@@H](CCC(=O)O)C(=O)N[C@@H](CO)C(=O)N[C@@H](CCCNC(=N)N)C(=O)N[C@@H](CCCNC(=N)N)C(=O)N[C@@H](C)C(=O)N[C@@H](CCC(N)=O)C(=O)N[C@@H](CC(=O)O)C(=O)N[C@@H](Cc1ccccc1)C(=O)N[C@H](C(=O)N[C@@H](CCCCNC(=O)CC[C@H](NC(=O)CC[C@H](NC(=O)COCCOCCNC(=O)COCCOCCNC(=O)CC[C@H](NC(=O)CCCCCCCCCCCCCCCCC(=O)O)C(=O)O)C(=O)O)C(=O)O)C(=O)N[C@@H](Cc1c[nH]c2ccccc12)C(=O)N[C@@H](CC(C)C)C(=O)N[C@@H](CC(C)C)C(=O)N[C@@H](CO)C(=O)N[C@H](C(N)=O)[C@@H](C)O)C(C)C", "note": "[Example 58, N^ε24-[(4S)-4-carboxy-4-[[(4S)-4-carboxy-4-[[2-[2-[2-[[2-[2-[2-[[(4S)-4-carboxy-4-(17-carboxyheptadecanoylamino)butanoyl]amino]ethoxy]ethoxy]acetyl]amino]ethoxy]ethoxy]acetyl]amino]butanoyl]amino]butanoyl]-[Glu15,Lys24,Leu27,Ser28]-Glucagon amide]", "ThT assay [Lagtime]": 8}
